This note sets out measurements from ChEMBL document CHEMBL4888484, “Replenishing the malaria drug discovery pipeline: Screening and hit evaluation of the MMV Hit Generation Library 1 (HGL1) against asexual blood stage Plasmodium falciparum ,using a nano luciferase reporter read-out” (2022).

The experiment concerns Plasmodium falciparum. The experiment is described as follows: Primary screen in NF54 nanoGlo assay, in single point, at 2uM, 72h; a lower Z score goes with more inhibition. Type of experiment: functional, Erythrocyte. The settings on record: timepoint 72 hour.

Structures are written as SMILES. Several values for one entry are separate records, joined by “and”; a condition that tells them apart may be missing. Identical values can stand only once. Screen size: about 150,000 compounds; about 540 (0.36%) showed an effect of 50% or more. The list shows a part of the results.

Broadly, the % Inhibition is the drop in the measured response relative to a control, in per cent.

In the case of `CC(=O)OC(C)(C)C(=O)N[C@@H](C)Cc1ccc2c(c1)CCO2`, the “% Inhibition” value was -5% and the Z score turned out to be 0.62.
In the same order, the values of `O=C(NCc1ccccc1F)[C@H]1CCCN(c2nnc3c(Cl)cccn23)C1` are -4% and 0.39.
Consider `C[C@H](Oc1ccc(C(=O)N2CCNC(=O)C2)cn1)c1ccccc1`, for which the “% Inhibition” value is given as -12% and the Z score worked out at 1.14.
Consider `Cc1nnc(NCCc2ccc(Cl)cc2)[nH]c1=O`, for which the “% Inhibition” value is given as -5% and the Z score was determined as 0.72.
For `CCc1noc(-c2ccn3c(CNC(=O)CCC4CCCC4)nnc3c2)n1` the same measures were -13% and 2.46.
Regarding `CCOc1ccc(N2CCN(CCn3cnc4ccccc4c3=O)CC2)cc1`, the “% Inhibition” value turned out to be 31% and the Z score was -3.46.
`CC(C)(C)OC(=O)N[C@@H]1C=CC[C@@H](C(=O)O)C1`: the “% Inhibition” value worked out at 3% and the Z score is recorded as -0.44.
For `O=C(c1ccccc1-c1nnn[nH]1)N(CCCO)Cc1ccc(Cl)cc1` the same measures were -2% and 0.26.
For `Cc1nnc2n1CC1CCC(C2)N1Cc1ccc(C(F)(F)F)cc1` (stereo not given) the same measures were -5% and 0.55.
For the compound `CC(C)NC(=O)N(CC(=O)N1CCn2cccc2[C@H]1c1cccc(F)c1)C1CC1`, the “% Inhibition” value is 35% and the Z score was -4.73.
`O=C(O)[C@@H]1CCCc2sc(Nc3ccccc3)nc21`: the “% Inhibition” value was -4% and the Z score came out at 0.63.
Consider `O=C(N[C@H]1CCN(Cc2ccccn2)C[C@@H]1O)c1cc(F)ccc1F`, for which the “% Inhibition” value is given as -20% and the Z score was found to be 2.55.
For `O=C1CCN(C(=O)c2cc3n(n2)CCCO3)CCCCCN1` the same measures were -13% and 2.02.
For `Fc1ccc2nc(CN3CCCC[C@H]3c3nccs3)ccc2c1` the same measures were -3% and 0.55.
Turning to `C#CCCC1(CCC(=O)N2CC(Cc3ccccc3)C2)N=N1`, the “% Inhibition” value was -16% and the Z score amounted to 2.05.
With `Cc1ccc(CNC(=O)CC2CCN(C(=O)c3cc4ccccc4[nH]3)CC2)o1`, the “% Inhibition” value is recorded as -3% and the Z score is listed as 0.35.
In the same order, the values of `O=C(c1cc(-c2ccco2)[nH]n1)N1CC[C@@](F)(CO)C1` are -18% and 2.74.
As for `CCc1ccc(-c2nc(C)c(C(=O)N3CCCO[C@@H](CC)C3)s2)cc1`, the “% Inhibition” value was -3% and the Z score is 0.33.
In the same order, the values of `COc1cc(C(=O)N2CCCCC2)cc(OC)c1OCc1ccccc1` are -1% and 0.24.
With `CN(C)C(=O)c1n[nH]c2c1CN(Cc1cc(O)c3cc(F)ccc3n1)CC2`, the “% Inhibition” value turned out to be 4% and the Z score is -0.57.
For `Cc1ccccc1C(=O)NCCC(=O)N1CCN(Cc2ccccc2)C(C)(C)C1` the same measures were -10% and 1.18.
Take `Cc1cc(C)cc(Nc2[nH]nnc2C(=O)NCc2ccc(Cl)cc2)c1`: the “% Inhibition” value was 0% and the Z score is given as 0.03.
In the same order, the values of `CN(C)S(=O)(=O)N(CC#N)Cc1ccccc1C(F)(F)F` are -9% and 1.2.
On to `COCCn1nc2n(c1=O)CCC1(CC2)CCN(C(=O)c2cccc(C#N)c2)CC1`, for which the “% Inhibition” value came out at 2% and the Z score was -0.22.
For `O=C(Nc1ccc(OC(F)(F)F)cc1)C(F)F` the same measures were -14% and 2.13.
Regarding `Cc1cc(C(=O)N2CCC(Cc3nc4ccccc4[nH]3)CC2)[nH]n1`, the “% Inhibition” value is -18% and the Z score is reported as 1.81.
For `Cc1ccnc(NC(=O)c2ccccc2C(=O)c2ccc(Cl)cc2)c1` the same measures were -38% and 4.5.
For `Cc1ccccc1OCC(=O)N[C@H](c1ccccc1)C1CC1` the same measures were -13% and 1.13.
On to `COc1cccc2c1CCc1c(C(=O)NC[C@@H]3CCCN4CCCC[C@H]34)n[nH]c1-2`, for which the “% Inhibition” value was found to be 5% and the Z score is given as -0.63.
For `CCO[C@@H](C)C(=O)NCc1cnc2c(c1)CCC2` the same measures were -21% and 2.12.
Turning to `COc1ccccc1CNC(=O)c1nnn2c1CO[C@H](c1ccccc1)C2`, the “% Inhibition” value was -6% and the Z score is given as 0.72.
Take `CC(=O)N1CC[C@H](CNC(=O)Nc2ccc(Cl)cc2)C1`: the “% Inhibition” value came out at 0% and the Z score is recorded as 0.07.
On to `NC(=O)c1cc(Cl)ccc1OCC1(O)CCCCC1`, for which the “% Inhibition” value was 8% and the Z score is -1.53.
In the same order, the values of `CCn1ncc(CNC(=O)NC2CC(=O)N(C3CC3C)C2)n1` (stereo not given) are 18% and -2.26.
For `Cc1cnn(C2CN(Cc3nc4c(F)cccc4[nH]3)C2)c1`, the “% Inhibition” value is recorded as 9% and the Z score was -1.74.
In the same order, the values of `COc1nc2c(cc1CNC1CCN(C(C)C)CC1)C(=O)N(C1CCCC1)C2` are 6% and -0.77.
In the same order, the values of `COCCN1CC[C@H](CNCc2ccccc2OCCCCn2ccnc2)C1` are 10% and -1.22.
As for `Cc1nn(-c2ccccc2)c2nc3[nH]c(=O)[nH]c(=O)c3c(-c3ccc4c(c3)OCO4)c12`, the “% Inhibition” value (2 µM) was -13% and 6%.
For `O=C(NCCc1ccco1)c1cccc(-n2nnc3cccnc32)c1`, the “% Inhibition” value is recorded as -16% and the Z score is on record as 3.1.
For `O=C(NCc1ccccc1Cl)c1ccc(Cn2cnc3ccccc32)o1` the same measures were -2% and 0.47.
Take `Cc1ccc(CN(C(=O)C2CC(=O)NC(=O)C2)c2ccc(F)cc2)o1`: the “% Inhibition” value was 0% and the Z score is reported as -0.01.
Turning to `COc1ccc(CCNC(=O)c2ccc3n[nH]c(=O)n3c2)cc1OC`, the “% Inhibition” value was -6% and the Z score was determined as 0.77.
For the compound `CN1CCC2(CC1)CN(C(=O)c1nscc1Br)[C@@H]1COC[C@@H]12`, the “% Inhibition” value is 0% and the Z score is listed as -0.03.
For `O=C(Nc1nnc([C@H]2CC(=O)N(c3ccc(OC(F)(F)F)cc3)C2)o1)c1ccc(Cl)cc1`, the “% Inhibition” value is -6% and the Z score is listed as 0.93.
In the same order, the values of `Cc1ccsc1CN(Cc1cccc(O)c1)Cc1ccccn1` are 0% and 0.05.
In the same order, the values of `CCc1noc(CN(C)Cc2c(C)nn(CCO)c2C)n1` are -25% and 2.68.
In the same order, the values of `Cc1nc(C(F)(F)F)ccc1NC(=O)NCc1ccccc1` are -14% and 1.64.
On to `CC[C@](C)(NC(=O)c1ccc(Cl)cc1F)C(=O)OC`, for which the “% Inhibition” value is given as 7% and the Z score is given as -1.07.
For `Cc1ccc(C(=O)N[C@H]2CCOC3(CC(C(=O)O)C3)C2)cc1C` (stereo not given in full) the same measures were 6% and -0.93.
For `CC(C)C(=O)N1C[C@@H]2CN(C(=O)Cc3cccc(F)c3)C[C@]2(CO)C1` the same measures were -6% and 0.76.
In the same order, the values of `COC1C(C)C(NC(=O)[C@H](C)NS(=O)(=O)c2c(C)noc2C)C1(C)C` (stereo not given in full) are -5% and 0.63.
In the case of `COc1cc(C[C@@]2(CCC(=O)N3CCN(C(=O)c4ccccc4OC)CC3)CCC(=O)N2)ccc1F`, the “% Inhibition” value stood at 7% and the Z score was -1.08.
Turning to `Cc1cccc(CS(=O)(=O)N2C[C@H](c3cnn(C)c3)C(C)(C)C2)c1`, the “% Inhibition” value amounted to 19% and the Z score is given as -2.46.
Regarding `CCc1ccc(S(=O)(=O)N2CCOC[C@H]2c2noc(-c3cnn(C)c3)n2)cc1`, the “% Inhibition” value came to 3% and the Z score is listed as -0.32.
For `CCCc1nc(N2CCC3(CCNC(=O)CC3)CC2)no1` the same measures were -5% and 0.63.
For `COc1ccc(Cl)cc1N(C)C(=O)Nc1cn(CC(C)C)c(=O)c2ccccc12`, the “% Inhibition” value was determined as 0% and the Z score is recorded as 0.04.
For `O=C1CN(C(=O)C2CCN(S(=O)(=O)c3ccc(Cl)cc3)CC2)CCN1` the same measures were 9% and -1.47.
Regarding `COCc1nc(C(=O)N2CCCCC[C@H]2c2ccc(C)o2)cs1`, the “% Inhibition” value was found to be 0% and the Z score is -0.04.
In the same order, the values of `C[C@H]1CCC(=O)N1c1ccc(NC(=O)CCCC(=O)c2ccccc2)cc1` are -14% and 1.43.
With `CCCCNc1cc(Cl)ccc1CS(C)(=O)=O`, the “% Inhibition” value is reported as 1% and the Z score is -0.07.
For `Cc1ccc(/N=C(NC2CCc3ccccc32)/C(=N\c2ccc(C)cc2)NC2CCc3ccccc32)cc1` (stereo not given) the same measures were -27% and 3.18.
On to `Cc1nc2c(c(=O)n1C)CN(C(=O)[C@@H]1Cc3ccccc3S(=O)(=O)N1)C2`, for which the “% Inhibition” value turned out to be 8% and the Z score is -1.47.
For `COC(=O)c1ccc(NC2CCOC(c3ccccc3)C2)nn1` (stereo not given) the same measures were 2% and -0.49.
In the same order, the values of `O=S(=O)(NCc1cn2ccsc2n1)C1C[C@@H]2CC[C@H]1C2` (stereo not given in full) are 3% and -0.44.
In the same order, the values of `O=C(OCCc1cn[nH]c1)c1c[nH]nc1-c1c(F)cccc1F` are 0% and -0.02.
`CCCCN(CCCC)C(=O)c1cc2n(n1)C[C@@H](O)CNC2=O`: the “% Inhibition” value is -12% and the Z score is 1.57.
For `O=C(Nc1ccc(Oc2nnn[nH]2)cc1)c1ccc2scnc2c1` the same measures were -9% and 1.62.
In the same order, the values of `CCc1noc(C2CCC(NCC3CCC4(CC3)OCCO4)CC2)n1` (stereo not given) are -5% and 0.67.
Regarding `CCn1nnnc1-c1cccc(NC(=O)c2ccncc2Cl)c1`, the “% Inhibition” value was -6% and the Z score is reported as 0.88.
In the same order, the values of `CCNC(=O)N1CCC(COC)CC1` are -17% and 2.5.
As for `O=C([C@@H]1CC=CCC1)N1CC(C(F)F)C1`, the “% Inhibition” value is reported as -16% and the Z score came to 2.06.
On to `COc1cccc(NC(=O)Nc2cccc(-n3nc(OCC(C)C)nc3-c3ccco3)c2)c1`, for which the “% Inhibition” value is reported as -13% and the Z score was determined as 1.24.
As for `N#Cc1cccc([C@@H](CC(=O)NCCN2CCCC2)c2cn(Cc3ccc(F)cc3)c3ccccc23)c1Cl`, the “% Inhibition” value is reported as -5% and the Z score is recorded as 0.63.
On to `COc1ccccc1Cc1nc(-c2cc(C)n(C)n2)n(C(C)C)n1`, for which the “% Inhibition” value is given as -3% and the Z score worked out at 0.65.
Regarding `Cc1cc2n(n1)CCN(Cc1cc(O)n3nc(C)nc3n1)C2`, the “% Inhibition” value is reported as -8% and the Z score was found to be 1.16.
On to `CCN1C[C@@H](c2ccccc2)CC2(CCN(Cc3ccc(C(=O)NC)o3)CC2)C1`, for which the “% Inhibition” value is given as -3% and the Z score worked out at 0.56.
For `CCCN(C(=O)CCc1c[nH]c2ccccc12)[C@H]1CCc2ccccc2C1`, the “% Inhibition” value is -1% and the Z score is listed as 0.08.
Take `CC1Cc2ccccc2N1C(=O)C1CCCCC1C(=O)NCc1ccoc1` (stereo not given): the “% Inhibition” value was determined as 2% and the Z score is recorded as -0.17.
For `O=C(NCCCc1ncc[nH]1)c1ccc2c(c1)CCCC2` the same measures were -5% and 0.87.
As to `COc1ccc(N2CCN(C(=O)c3sc4nc(-c5ccc(F)cc5)cn4c3C)CC2)cc1`, the “% Inhibition” value is on record as -14% and the Z score was 1.9.
For `CC1(C)CN(C(=O)C23CC(c4ccccc4)(C2)C3)[C@H]2COC[C@H]21` the same measures were -5% and 0.75.
For `CC(C)CN(CC(N)=O)C(=O)c1cc(F)cc(Br)c1F` the same measures were 2% and -0.26.
In the same order, the values of `CCC[C@@H](C(=O)NCCCOCC1CC1)N1CCN(C(=O)OC(C)(C)C)CC1` are 3% and -0.5.
